In all, about 380,000 compounds went through this assay and about 170 (0.045%) were called active. The shares of active, inactive and inconclusive entries below differ from those in the screen. Calls come from the whole dose curve; as a rule, active = well fitted inhibition curve with a large enough effect; inconclusive = small, poorly fitted or top-dose-only effect; inactive = no such curve, though single readings can be large or run the other way. No potency is given beside an inconclusive call; the fits are too rough.
Each compound was assayed against Phosphoglycerate kinase, glycosomal (Trypanosoma brucei brucei) (UniProt P07378) (assay: qHTS Assay to Find Inhibitors of Phosphoglycerate Kinase). Details: PGK/GAPDH coupled, Kinase-Glo luminescence, 60 min; series mostly up to 57.5 µM; activity change, negative = inhibition: at the top concentration.
Description: Several species of the Trypanosomatidae family of parasitic protozoans cause a spectrum of diseases throughout the tropical and subtropical world. Sleeping sickness, caused by two subspecies of Trypanosoma brucei, is endemic to areas of sub-Saharan Africa, while Chagas disease, a manifestation of Trypanosoma cruzi infection, is prevalent throughout Central and South America. In addition, many species of Leishmania are responsible for a range of cutaneous and visceral diseases, causing ulcers, destructive lesions and kalaazar, a lethal infection of the viscera. Collectively, these organisms infect 30 million people worldwide (~500 million live in endemic areas), and account for ~130,000 deaths annually. Given their debilitating and prevalent nature, trypanosomatid parasites impose a heavy medical, economic and social burden on entire populations, primarily in the developing world. The problem is further exacerbated by the fact that existing treatments have progressed little in the past 50 years, and current drugs show high toxicity and poor efficacy. […] Blood-stream stages of T. brucei are entirely dependent on glycolysis as a source of ATP, and the tricarboxylic acid cycle and oxidative phosphorylation are both repressed. Glycolysis in axenically cultured T. cruzi, representing the intracellular pathogenic stage, is also essential for these parasites. […] Previous studies have shown that the glycolytic enzyme, phosphoglycerate kinase (PGK), is a viable target for drugs to kill these parasites. […] NIH Molecular Libraries Probe Production Network [MLPCN] NIH Chemical Genomics Center [NCGC] MLPCN Grant: R03 MH093212 PI Name: Malcolm Walkinshaw, University of Edinburgh
3ul of substrate/PGK buffer (columns 1,2,5-48) are dispensed into Greiner white solid bottom 1536-well assay plates; columns 3-4 receive only TEA buffer as 0x PGK controls. Compounds are then transferred via Kalypsys pin tool equipped with 1536-pin array (10nl slotted pins, V&P Scientific, San Diego, CA). Following addition of compound, 1ul of GAPDH (100nM final concentration, all columns) is added to initiate the reaction (this upstream coupling enzyme is necessary for in-well production of PGK substrate, 1,3-bisphosphoglycerate (1,3-BPG), which is unstable and not commercially available). The plates are then incubated at room temperature for 60 minutes. Kinase-Glo Plus reagent is added (2ul) and plates incubated for 10 minutes, before being transferred to a ViewLux high-throughput CCD imager (PerkinElmer) wherein single end-point measurements of luminescence are acquired using a clear filter. All reagents are diluted in an assay buffer consisting of 100mM TEA (pH 7.6), 5mM MgCl2 and 0.01% Tween-20.
With `CCOC(=O)c1c(NC(=O)CN2C(=O)NC(C)(c3ccc(Cl)cc3)C2=O)sc(C(=O)NC)c1C` (stereo not drawn) the “activity change, negative = inhibition” value was inactive: 5.64%. `CSc1ccc(/C=C(/NC(=O)c2ccccc2)C(=O)NCCCn2ccnc2)cc1` was tested, and the “activity change, negative = inhibition” value was inactive: -10.5%. With `O=C(CN1CCN(S(=O)(=O)c2ccc(Br)cc2)CC1)c1ccc(O)c(O)c1` the Potency was inconclusive [inhibitor, partial curve, poor fit]. In the case of `COc1ccc(-c2cc(=O)oc3c(O)c(O)ccc23)cc1`, the Potency was inconclusive [inhibitor, partial curve]. `CC(=O)Nc1ccc(S(=O)(=O)N(C)c2ccc(OCCOc3cccc(C)c3)cc2)cc1` was tested, and the Potency was inconclusive [inhibitor, partial curve, poor fit]. For `CC1(C)CCCN(C(=O)c2coc(=O)c(Br)c2)C1`, the Potency was active: 6.31 µM. `CCOC(=O)C1=C(C)N=c2s/c(=C/c3cccc([N+](=O)[O-])c3O)c(=O)n2C1c1ccc(OC)cc1OC` (stereo not drawn) was tested, and the Potency was inconclusive [inhibitor, partial curve, poor fit]. For `S=C(Nc1ccccc1Cl)N1CCN(c2ccccn2)CC1`, the Potency was inconclusive [inhibitor, single point]. For `O=[N+]([O-])c1ccc(/C=N/Nc2ccnc3cc(Cl)ccc23)o1`, the Potency was inconclusive [inhibitor, partial curve, poor fit]. With `COCCN1C(=O)c2oc3ccccc3c(=O)c2C1c1ccc(OC)c(OC)c1` (stereo not drawn) the Potency was active: 28.2 µM. For `CSc1ccc(Cl)c(C(=O)NCCOc2cc(C(C)C)ccc2C)c1`, the “outcome” value was “inactive”. For `CC(C)Cn1c(N)c(C(=O)COC(=O)c2cc(-c3ccco3)nc3ccccc23)c(=O)n(C)c1=O`, the “activity change, negative = inhibition” value was inactive: -12.7%. For `O=C(Cn1ccc2ccccc2c1=O)NCCC(=O)N1CCN(c2cccc(Cl)c2)CC1`, the “activity change, negative = inhibition” value was inactive: -2.63%. `Cc1ccc(C(=O)NCc2occc2C(=O)O)o1` was tested, and the Potency was inconclusive [inhibitor, partial curve, poor fit]. In the case of `CCOc1ccc(-c2cn3ccccc3n2)cc1`, the Potency was inconclusive [inhibitor, single point]. In the case of `CS(=O)(=O)C1=NSC2=NC(=O)/C(=C\c3cccn3-c3ccc(Cl)cc3)C(=N)N21`, the Potency was inconclusive [inhibitor, single point]. For `O=C1Nc2ccccc2C1=Nc1ccc(S(=O)(=O)Nc2nccs2)cc1`, the Potency was inconclusive [inhibitor, partial curve]. For `COc1cc(NS(=O)(=O)c2ccc(NC(=S)NC(=O)C3CCCC3)cc2)nc(OC)n1`, the Potency was inconclusive [inhibitor, full curve, poor fit]. `Cc1ccc(C(=O)O)cc1-c1ccc(/C=C2/NC(=O)N(c3ccccc3)C2=O)o1` was tested, and the Potency was inconclusive [inhibitor, single point]. For `COc1cc(C2c3c([nH]c(=O)[nH]c3=O)Nc3ccc4ccccc4c32)ccc1O` (stereo not drawn), the Potency was inconclusive [inhibitor, single point]. `CCC(=O)Nc1sccc1C(=O)OC` was tested, and the “outcome” value was “inactive”. In the case of `Cc1ccc(NC(=O)CN2C(=O)S/C(=C/c3ccc(O)c([N+](=O)[O-])c3)C2=O)cc1C`, the Potency was inconclusive [inhibitor, partial curve]. With `CCOc1ccc(/C=C2/SC(=S)N(CCC(=O)Nc3ccc(C(=O)O)cc3)C2=O)cc1` the Potency was inconclusive [inhibitor, single point]. For `FC(F)(F)c1ccccc1NC(=S)N1CCN(c2ccccn2)CC1`, the Potency was inconclusive [inhibitor, partial curve, poor fit]. With `COc1ccc(C(=O)Nc2ccccc2C(=O)N/N=C/c2ccccc2OC)cc1` the Potency was inconclusive [inhibitor, partial curve, poor fit]. In the case of `O=C(Nc1ccc(F)cc1F)c1ccc2c(c1)OCCO2`, the Potency was inconclusive [inhibitor, partial curve]. With `Cc1ccc(-n2c(O)c(/C=N/Nc3ccc(S(=O)(=O)N4CCOCC4)cc3[N+](=O)[O-])c3ccccc3c2=O)c(C)c1` the Potency was inconclusive [inhibitor, single point]. `Cc1cccc(N(CC(=O)NCCSc2ccc(Cl)cc2)S(=O)(=O)c2ccccc2)c1C` was tested, and the “activity change, negative = inhibition” value was inactive: -6.6%. With `Cc1ccccc1NC(=O)Cn1nc(-c2ccc(F)cc2)c2cnc3ccccc3c21` the “outcome” value was “inactive”. For `CCOc1cc(/C=C2\SC(=Nc3ccc(CC)cc3)NC2=O)ccc1OCC(=O)O`, the Potency was inconclusive [inhibitor, partial curve, poor fit]. In the case of `O=C(CSc1nnc(-c2cccc(S(=O)(=O)N3CCCC3)c2)n1-c1ccccc1)Nc1ccc(C(=O)O)cc1`, the Potency was inconclusive [inhibitor, single point]. `N/C(=N\OC(=O)c1cccs1)c1ccccc1` was tested, and the Potency was inconclusive [inhibitor, partial curve]. With `CCOC(=O)C1=C(C)N=c2s/c(=C\c3ccc(OCC(=O)O)cc3)c(=O)n2C1c1ccc(Cl)cc1` (stereo not drawn) the Potency was inconclusive [inhibitor, full curve, poor fit].

From PubChem BioAssay AID602233 (National Center for Advancing Translational Sciences (NCATS), 2012)
% is set by controls: 0 for no effect and ±100 for the full control effect; potency is the fitted concentration of half-maximal effect; tags give direction and shape of the fitted curve.
Note: nearly all actives have a fitted effect of over 60% in size.
